Data as given in paper PMC4336329 (PLoS ONE, 2015).
The campaign covered roughly 310,000 compounds. About 2,200 (0.71%) showed an effect of 50% or more. Effects have a minus sign here. The list shows a part of the results.

Each compound was assayed against human ether-à-go-go-related gene (hERG) potassium channel (human, UniProt Q12809) (assay: primary screen, population patch clamp on CHO cells stably expressing hERG).
human ether-à-go-go-related gene (hERG) potassium channel, sequence (Q12809 whole entry, looked up): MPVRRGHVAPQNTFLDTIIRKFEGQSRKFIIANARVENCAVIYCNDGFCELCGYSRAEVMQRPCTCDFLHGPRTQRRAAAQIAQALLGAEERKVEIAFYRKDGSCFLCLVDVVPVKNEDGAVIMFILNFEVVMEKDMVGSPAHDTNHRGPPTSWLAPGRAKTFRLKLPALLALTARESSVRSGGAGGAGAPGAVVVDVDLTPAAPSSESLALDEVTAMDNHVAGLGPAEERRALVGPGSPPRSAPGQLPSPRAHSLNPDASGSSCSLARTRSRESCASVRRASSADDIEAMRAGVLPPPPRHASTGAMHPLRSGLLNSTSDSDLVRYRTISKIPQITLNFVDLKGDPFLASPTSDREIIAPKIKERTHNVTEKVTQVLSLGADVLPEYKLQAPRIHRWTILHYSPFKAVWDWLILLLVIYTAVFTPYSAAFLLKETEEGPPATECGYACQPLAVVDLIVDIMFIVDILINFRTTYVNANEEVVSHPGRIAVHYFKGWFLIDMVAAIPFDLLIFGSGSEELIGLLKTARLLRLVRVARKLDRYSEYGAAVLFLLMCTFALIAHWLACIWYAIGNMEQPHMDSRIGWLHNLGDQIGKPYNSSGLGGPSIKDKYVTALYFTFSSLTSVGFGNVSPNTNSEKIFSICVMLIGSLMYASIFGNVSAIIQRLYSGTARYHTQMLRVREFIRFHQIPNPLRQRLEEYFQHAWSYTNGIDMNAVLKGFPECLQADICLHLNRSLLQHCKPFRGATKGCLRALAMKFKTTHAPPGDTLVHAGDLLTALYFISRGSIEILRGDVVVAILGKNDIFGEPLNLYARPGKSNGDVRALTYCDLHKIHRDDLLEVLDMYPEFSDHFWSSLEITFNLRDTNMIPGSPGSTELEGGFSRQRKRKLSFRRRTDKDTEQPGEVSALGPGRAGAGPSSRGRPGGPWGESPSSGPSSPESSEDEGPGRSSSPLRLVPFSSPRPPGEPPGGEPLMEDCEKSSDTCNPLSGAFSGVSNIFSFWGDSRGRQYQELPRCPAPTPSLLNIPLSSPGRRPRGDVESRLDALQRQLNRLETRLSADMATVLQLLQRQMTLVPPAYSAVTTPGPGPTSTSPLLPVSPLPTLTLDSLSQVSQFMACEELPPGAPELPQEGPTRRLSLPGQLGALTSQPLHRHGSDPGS

In order of rising “hERG current change (%, negative = inhibition) at 1uM” value:
1. COc1ccccc1C(=O)C1CCCN(Cc2cccc3nccnc23)C1 (centres unmarked)  -45%
2. Cc1ccc(C(=O)Nc2cccc(NC(=O)CN3CCCCC3)c2)cc1  -11.9%
3. CCCCCc1cc(=O)oc2c(C(CCN3CCCCC3)c3cc(OC)c(OC)c(OC)c3)c(OC)cc(OC)c12 (centres unmarked)  -10.6%
4. Cc1ccc(NC(=O)c2nc[nH]c2C(=O)NCC(=O)OC(C)(C)C)cc1  -10.1%
5. N#CCCN(Cc1cccnc1)C(=O)Nc1cccc(Cl)c1  -8.11%
6. COCCN(C(=O)COC(=O)C1CC1)c1c(N)n(Cc2ccccc2)c(=O)[nH]c1=O  -7.91%
7. Cc1ccsc1/C=N/Nc1nc2ccccc2s1  -7.03%
8. O=C1COc2ccc(C(=O)CSc3nnc(NCc4ccccc4)s3)cc2N1  -3.95%
9. O=C(Cn1nc(Cc2cccnc2)c2ccccc2c1=O)NCCCN1CCCC1=O  -2.58%
10. Cc1ccc(/C=N/NC(=O)CSc2nc3ccccc3n2Cc2ccccc2)o1  -0.68%
11. CC1(C(=O)NC2CCCC2)CCC(=O)N1Cc1ccc2c(c1)OCO2 (centres unmarked)  -0.531%
12. COc1ccc(N2CC(C)Cn3c2nc2c3c(=O)[nH]c(=O)n2C)cc1 (centres unmarked)  0.0833%
13. CC(/C=N/NC(=O)c1cc(-c2cccnc2)nc2c1c(C)nn2-c1ccccc1)=C\c1ccccc1  0.13%
14. CC12CC(c3ccccc3O1)N(C(=O)c1ccco1)C(=S)N2c1ccc(F)cc1 (centres unmarked)  0.254%
15. CCC(C)/C(C)=N/NC(=O)c1ccccc1OCCOc1ccccc1 (centres unmarked)  0.255%
16. Cc1cccc(-n2c3nc(=O)[nH]c(=O)c-3cc3cc([N+](=O)[O-])ccc32)c1  1.38%
17. C/C=C/C(=O)OCC(=O)Nc1c(Cl)cccc1Cl  1.7%
18. O=C(Cn1nnc(-c2ccc(S(=O)(=O)N3CCCC3)cc2)n1)Nc1ccccc1-n1cccc1  2.03%
19. O=C(CSc1nncs1)N1CCN(S(=O)(=O)c2ccccc2)CC1  2.44%
20. O=C(c1ccccc1)c1cccn1CC(=O)N1CCc2ccccc2C1  2.97%
21. C=CCn1c(=O)c2ccccc2n2c(SCC(=O)NCCc3ccccc3)nnc12  3.36%
22. O=C(NCc1ccc2c(c1)OCO2)C(=O)Nc1ccccc1  3.48%
23. Clc1ccccc1-c1nnc(-c2ccc3c(c2)OCO3)o1  3.62%
24. CCN(CC)S(=O)(=O)c1cccc(NC2=NCC(C)S2)c1 (centres unmarked)  4.03%
25. COc1ccc2[nH]c(=O)c(CN(C(C)=O)c3cccc(C)c3)cc2c1  4.04%
26. O=C(O)COc1ccccc1/C=N/NC(=O)CSc1nnc(SCc2ccccc2)s1  4.1%
27. COc1cc(CCC(=O)Nc2c(C(=O)N3CCN(c4ccccc4)CC3)oc3ccccc23)on1  4.13%
28. COc1ccccc1NC(=O)CSc1nnc(C2CCCCC2)o1  4.22%
29. CC(=O)n1c(C=Nc2ccc(Cl)cc2)c(O)c2ccccc21  4.48%
30. CCOC(=O)c1cc(-c2ccccc2)n(CCC(=O)N2CCN(c3ccc(OC)cc3)CC2)c1C  5%
31. CC(C)OCCCN1CN(S(=O)(=O)c2cccs2)c2nc3ccccc3nc21  5.35%
32. COc1ccc(NC(=O)CSc2ccccc2)c([N+](=O)[O-])c1  5.46%
33. Cc1cc(=O)[nH]c(SCC(=O)Nc2ccc(Br)cc2)c1C#N  5.49%
34. COC(=O)c1ccc(COC(=O)CNC(=O)c2cccc(OC)c2)o1  5.55%
35. CCOc1ccc(S(=O)(=O)Nc2ccc(S(=O)(=O)N3CCCC3)cc2)cc1  5.59%
36. O=c1c2ccccc2nnn1CSc1nnc(-c2cccc(S(=O)(=O)N3CCCCC3)c2)o1  6.12%
37. CCOc1ccc(N2C(=O)CN=C2Nc2ccccc2F)cc1  6.28%
38. Cc1nn(-c2ccccc2)c2nc(C(Cl)(Cl)Cl)[nH]c(=O)c12  6.29%
39. O=C(CSc1nc2ccccc2n1-c1ccccc1)Nc1ncc(Cl)cc1Cl  6.36%
40. Cc1cc(NC(=O)c2cccnc2)ccc1Br  6.96%
41. CCOC(=O)C1(CC2CCCCO2)CCN(S(=O)(=O)c2ccc(OC)cc2)CC1 (centres unmarked)  6.99%
42. O=S(=O)(c1ccc(Br)s1)N1CCN(c2ncccn2)CC1  7.4%
43. CC1(C)CC[C@]2(C(=O)O)CC[C@]3(C)C(=CCC4[C@@]5(C)CC[C@H](O)C(C)(C)C5[C@H](O)C[C@]43C)[C@@H]2C1 (some centres unmarked)  7.52%
44. CC(C)CC(NC(=O)CCCNC(=O)CCC(=O)OC1O[C@H]2OC3(C)CC[C@H]4[C@H](C)CCC(C1C)C24OO3)C(=O)O (some centres unmarked)  7.6%
45. C/C(CCc1ccc2c(c1)OCO2)=N\N=C(/N)SC1CC(=O)N(c2ccccc2F)C1=O (centres unmarked)  7.78%
46. O=C1CC(CSc2ccc(Cl)cc2)=NN1  7.8%
47. CCn1c2ccccc2c2cc(NC(=O)COc3ccccc3OC)ccc21  7.83%
48. Cc1ccc(C)c(NC(=O)COC(=O)Cc2ccsc2)c1  8%
49. FC(F)(F)c1ccc(Oc2ccc3cc(Br)ccc3c2)nc1  8.21%
50. COc1ccc(C(=O)Nc2ccc(OCc3ccccc3)cc2)cc1[N+](=O)[O-]  8.3%
51. CCOC(=O)COc1nc(OC)nc(N2CCOCC2)n1  8.45%
52. c1cncc(-c2nnc(-c3cccs3)o2)c1  8.95%
53. O=C(COC(=O)c1cccc(S(=O)(=O)NCc2ccccc2)c1)c1ccc2c(c1)OCCO2  9.41%
54. CCOC(=O)c1c(C)n(C)c2c(C)cc(O)c(OC(=O)CC)c12  9.43%
55. O=C(CNC(=S)N(Cc1ccccc1)Cc1ccccc1F)NCCc1ccccc1  9.52%
56. CCOc1ccc2ccccc2c1/C=N/NC(=O)c1c(C)cc(C)[nH]c1=O  9.98%
57. O=C(CSc1ccc2nnc(-c3cccnc3)n2n1)Nc1ccccc1C(F)(F)F  10.2%
58. COc1ccc(NC(=O)CN(C)C(=O)c2cc(-c3cccs3)nn2-c2ccccc2)cc1  10.5%
59. CCOc1ccc(S(=O)(=O)N2CCN(c3ccc(OC)cc3)CC2)c2cccnc12  10.5%
60. COc1cc(/C=C/C(=O)NCc2ccccn2)cc(OC)c1OC  10.5%
61. CNCc1ccccc1OCC(=O)Nc1ccccc1  10.6%
62. CCN(CC)c1nc(Oc2ccc(C(=O)NN)cc2)nc(Oc2ccc(C(=O)NN)cc2)n1  10.7%
63. CCCN1CNC(=S)N(Cc2ccccc2)C1  11.2%
64. O=C1CC(=O)N(c2ccccc2F)C(=O)N1  11.3%
65. COc1ccc(CCNC2=C(Cl)C(=O)N(CCc3ccccc3)C2=O)cc1OC  11.4%
66. c1ccc(-c2cc(N3CCCCC3)nc(-c3ccccc3)n2)cc1  11.5%
67. CCNc1nc(NCC)nc(-n2nc(C)cc2C)n1  11.5%
68. Cc1nn(Cc2ccccc2)c(Cl)c1C(=O)OCC(=O)N1CCCC1  11.9%
69. CC(=O)Nc1nonc1-c1nc2ccccc2n1Cc1ccccc1  12%
70. O=C(Nc1ccccc1C(=O)N1CCCC1)c1ncoc1-c1cccc(Cl)c1  12.9%
71. Cc1ccccc1OCC(=O)NCCC(=O)O  13.1%
72. Cc1ccc(S(=O)(=O)N2CCN(c3ncnc4c3cnn4-c3ccccc3)CC2)cc1  13.2%
73. O=C(CCCCCN1C(=O)c2ccccc2C1=O)NC1CCCC1  13.5%
74. CCN(C(=O)COC(=O)c1cc(S(=O)(=O)N2CCOCC2)c(Cl)cc1Cl)C1CCS(=O)(=O)C1 (centres unmarked)  13.6%
75. CC(C)Oc1ccc(NC(=O)C2CCCNC2=O)cc1 (centres unmarked)  13.7%
76. CC(C)(C)C(=O)COC(=O)C1=NN(c2ccccc2)C(=O)CC1  14.6%
77. COc1ccccc1NC(=O)Nc1nc2ccc(S(N)(=O)=O)cc2s1  14.8%
78. CC(Nn1cnnc1)c1cc(Cl)ccc1O (centres unmarked)  14.8%
79. Cc1cc(-c2nnc(SCC(=O)Nc3nccs3)o2)no1  15.2%
80. O=C(COC(=O)/C=C/c1ccccc1Cl)NCCc1ccc(Cl)cc1Cl  15.3%
81. CCOC(=O)c1ccc(NC(=O)c2ccc(CN3CCc4ccccc4C3)cc2)cc1  15.8%
82. Cc1ccc(C(C(=O)NCC2CCCO2)N(C(=O)c2snc(C(N)=O)c2N)c2ccc3c(c2)OCCO3)cc1 (centres unmarked)  15.8%
83. O=C(Nc1ccc(C(=O)O)cc1)/C(=C\c1ccc2c(c1)OCO2)NC(=O)c1ccc(Br)cc1  15.8%
84. CCO/C=C1\N=C(c2ccc(F)cc2)OC1=O  15.9%
85. COc1ccc(CCN(/C=C2\Sc3ccccc3C2=O)C(C)=O)cc1OC  17.4%
86. O=C(CCc1n[nH]c(=O)[nH]c1=O)N/N=C/c1ccco1  18.4%
